Laboratory results reported in PubChem BioAssay.
This list was built around the results that the source calls inconclusive (neither active nor inactive); the mix of calls is not that of the screen. Activity calls are given as the source filed them.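 The calls were made as follows: active = cell viability at or below a set limit in both duplicate runs, the limit being the all-compound median minus 4 SD (cut at about 23% in these data, passing the limit was not always enough); inconclusive = no clear call, values can overlap the other calls; inactive = the rest.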

Test: viability of HCT116 without oncogenic beta-catenin – human colon tumor cells, pilot screen (AID 823);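 also: 0% = wells killed by 20 µM Hyamine and 100% = untreated DMSO cell wells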
Settings: HCT116 beta-catenin knockout viability, CellTiter-Glo, 60 h; at 10 µM; active compounds read low

| SMILES | viability |
| --- | --- |
| N#Cc1ccc(Sc2nc3ccccc3[nH]2)cc1C#N | inconclusive: 88.7% |
| O=C(O)CCC(=O)CCC(=O)c1ccc(Cl)cc1 | inconclusive: 97.8% |
| O=C(Nc1ccc(N2CCCC2)c(Cl)c1)c1ccc(Br)o1 | inactive: 78.2% |
| COc1ccc(C2=CC(c3ccc(Cl)cc3)n3cnnc3N2)cc1OC (stereo not drawn) | inactive: 97.3% |
| COc1ccc(-c2nc(SC)n(C)c(=O)c2C#N)cc1OC | inconclusive: 89.5% |
| COC(=O)c1ccc2[nH]c(C)c(CN3CCCC3)c(=O)c2c1 | inconclusive: 98.4% |
| Cc1c(NC(=O)c2ccc3c(c2)OCO3)c(=O)n(-c2ccccc2)n1C | inactive: 104% |
| COc1ccc(Nc2nnc(Cc3ccccc3)c(=O)[nH]2)c(OC)c1 | inactive: 93.5% |
